# Data: the supplement of paper PMC8512760
# This is one part of the list. Most values come without repeats; read them as rough.
# Assays:
# Experiment in all cases: cell viability relative to vehicle (% of vehicle); basal-like triple-negative breast cancer lines; higher = less cytotoxic
# Conditions in all cases: 10 µM; 72 h
# [1] = tested on: HCC-1143
# [2] = tested on: HCC-1187
# [3] = tested on: MDA-468
# [4] = tested on: SUM-149
# 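Further: stably firefly luciferase-GFP labeled cells in 96-well plates, viability read as luciferase photon flux after d-luciferin addition, treated wells normalized to vehicle wells, single-dose high-throughput screen.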
SMILES,cell viability [1],cell viability [2],cell viability [3],cell viability [4]
CNCC(O)C(O)C(O)C(O)CO (stereo unspecified) [Meglumine],75.9,108,108,95.8
O=c1oc2cc(O)ccc2s1 [Tioxolone],123,74.8,111,136
COC(c1ccccc1)(c1ccccc1)C(Oc1nc(C)cc(C)n1)C(=O)O (stereo unspecified) [Ambrisentan],81.1,91.6,89,94.8
C[N+]1(C)CCC(OC(=O)C(O)(c2ccccc2)C2CCCC2)C1.[Br-] (stereo unspecified) [Glycopyrrolate],66.9,81,124,113
CCCc1cc(C(N)=S)ccn1 [Protionamide],77.5,71.9,98.2,110
CCNC1CC(N)C(OC2OC(CN)=CCC2N)C(O)C1OC1OCC(C)(O)C(NC)C1O.CCNC1CC(N)C(OC2OC(CN)=CCC2N)C(O)C1OC1OCC(C)(O)C(NC)C1O.O=S(=O)(O)O.O=S(=O)(O)O.O=S(=O)(O)O.O=S(=O)(O)O.O=S(=O)(O)O (stereo unspecified) [Netilmicin Sulfate],69.4,77.5,94.9,81.7
CN(C)CCCOc1nn(Cc2ccccc2)c2ccccc12.Cl [Benzydamine HCl],98.6,119,124,79.1
COC1=CC=C(/C(C2=CC=C(OC)C=C2)=C(Cl)/C3=CC=C(OC)C=C3)C=C1 [Chlorotrianisene],90.3,90.3,100,124
Cc1ccc(-n2[nH]c(C)c(NN=C3C=CC=C(c4cccc(C(=O)O)c4)C3=O)c2=O)cc1C.NCCO.NCCO [Eltrombopag Olamine],74.6,115,87.9,106
Cl.O=c1n(CCCN2CCN(c3cccc(Cl)c3)CC2)nc2ccccn12 [Trazodone HCl],110,108,98.7,120
COC(=O)C1CC2=CC(=O)CCC2(C)C23OC2CC2(C)C(CC[C@]24CCC(=O)O4)C13 (stereo partly specified) [Epleremone],73.2,100,119,97.1
CCC(C)(C)c1ccc(CC(C)CN2CC(C)OC(C)C2)cc1.Cl (stereo unspecified) [Amorolfine HCl],78.9,107,97.6,96.4
N#CC(c1ccc(Cl)cc1)c1c(Cl)cc(-n2ncc(=O)[nH]c2=O)cc1Cl (stereo unspecified) [Diclazuril],77.9,86.8,130,133
CC(C)NCC(O)COc1ccc(CCOCC2CC2)cc1.Cl (stereo unspecified) [Betaxolol HCl],75.9,99.5,104,135
CC(=O)N(c1onc(C)c1C)S(=O)(=O)c1ccc(N)cc1 [Sulfisoxazole Acetyl],73,87.7,99.5,87.6
CN1CC(=O)N2[C@H](c3ccc4c(c3)OCO4)c3[nH]c4ccccc4c3C[C@@H]2C1=O [Tadalafil],87.9,93.3,92.7,120
CC(NC(=O)C(O)C(C)C)C(=O)NC1C(=O)N(C)CCc2ccccc21 (stereo unspecified),83.3,87.7,88.6,130
CC1C(=O)OC2CC34C5CC(C(C)(C)C)C36C(OC(=O)C6O)OC4(C(=O)O5)C21O (stereo unspecified) [Ginkgolide A],99.8,92.7,124,113
CC(C)(C)NC(=O)C1CC2CCCCC2CN1CC(O)C(Cc1ccccc1)NC(=O)C(CC(N)=O)NC(=O)c1ccc2ccccc2n1.CS(=O)(=O)O (stereo unspecified) [Saquinavir mesylate],103,93.4,96.8,123
COc1ccc2c(c1)C(=O)N(CCc1ccc(S(=O)(=O)NC(=O)NC3CCCCC3)cc1)C(=O)C2(C)C [Gliquidone],110,107,105,113
CN1CCN(C2=c3ccccc3=Nc3ccc(Cl)cc3N2)CC1 [Clozapine],75,98.6,95,79.4
COc1ccc2cc1Oc1ccc(cc1)CC1c3c(cc4c(c3Oc3cc5c(cc3OC)CCN(C)C5C2)OCO4)CCN1C (stereo unspecified) [Cepharanthine],83.9,49.3,25.7,37.4
O=C(NC1CCN(CCCCC2(C(=O)NCC(F)(F)F)c3ccccc3-c3ccccc32)CC1)c1ccccc1-c1ccc(C(F)(F)F)cc1 [Lomitapide],30.4,26.2,28.2,26.2
CNS(=O)(=O)Cc1ccc2[nH]cc(CCN(C)C)c2c1.O=C(O)CCC(=O)O [Sumatriptan Succinate],71.7,100,108,88.5
O=C([O-])CC(O)CC(O)C=Cc1c(C2CC2)nc2ccccc2c1-c1ccc(F)cc1.O=C([O-])CC(O)CC(O)C=Cc1c(C2CC2)nc2ccccc2c1-c1ccc(F)cc1.[Ca+2] (stereo unspecified) [Pitavastatin Calcium],54.7,43,33.1,53.1

SMILES,cell viability [1],cell viability [2],cell viability [3],cell viability [4]
COc1ccc(CC2c3cc(OC)c(OC)cc3CC[N+]2(C)CCC(=O)OCCCCCOC(=O)CC[N+]2(C)CCc3cc(OC)c(OC)cc3C2Cc2ccc(OC)c(OC)c2)cc1OC.O=S(=O)([O-])c1ccccc1.O=S(=O)([O-])c1ccccc1 (stereo unspecified) [Atracurium Besylate],85.4,61.7,125,108
Cn1cc[nH]c1=S [Methimazole],103,132,90.8,107
O=C(O)c1ccc2ccccc2c1O.OCc1cc(C(O)CNCCCCCCOCCCCc2ccccc2)ccc1O (stereo unspecified) [Salmeterol xinafoate],85.1,86.4,116,94.7
CNC(=O)c1cc(Oc2ccc(NC(=O)Nc3ccc(Cl)c(C(F)(F)F)c3)cc2)ccn1.Cc1ccc(S(=O)(=O)O)cc1 [Sorafenib Tosylate],82.4,100,93.4,103
Cc1cnc(Nc2ccc(OCCN3CCCC3)cc2)nc1Nc1cccc(S(=O)(=O)NC(C)(C)C)c1,68.3,40.1,62.2,57.5
CN1CCN(C2=Nc3ccccc3Oc3ccc(Cl)cc32)CC1.O=C(O)CCC(=O)O [Loxapine Succinate],74.4,84,105,101
CC12C=CC(=O)C=C1CCC1C2C(=O)CC2(C)C1CCC2(O)C(=O)CO (stereo unspecified) [Prednisone],81.3,94,120,115
CCOc1nc2cccc(C(=O)O)c2n1Cc1ccc(-c2ccccc2-c2nn[nH]n2)cc1 [Candesartan],95.6,130,92.8,123
CC(C)c1cc(C(=O)N2Cc3ccc(CN4CCN(C)CC4)cc3C2)c(O)cc1O,47.7,39.3,38.1,56.6
CN(C)C(=O)NC1CCC(CCN2CCN(c3cccc(Cl)c3Cl)CC2)CC1 (stereo unspecified) [Cariprazine],86.9,93.1,88.6,120
COC(=O)c1ccc2c(c1)NC(=O)C2=C(Nc1ccc(N(C)C(=O)CN2CCN(C)CC2)cc1)c1ccccc1 [Nintedanib (BIBF 1120)],64.8,86.1,117,77.7
NS(=O)(=O)c1cc(C(=O)O)c(NCc2ccco2)cc1Cl [Furosemide],82.6,82.3,98.4,92.6
CCCCCCCCCCCC(CC1OC(=O)C1CCCCCC)OC(=O)C(CC(C)C)NC=O (stereo unspecified) [Orlistat],72.3,101,112,84.6
COc1ccc(C[C@H](N)C(=O)N[C@@H]2[C@H](O)[C@H](n3cnc4c(N(C)C)ncnc43)O[C@@H]2CO)cc1.Cl.Cl [Puromycin dihydrochloride],20.8,23.8,35.3,29.7
Cc1cc(=O)[nH]c(=S)[nH]1 [Methylthiouracil],70.7,96.5,99,105
"O=C1CN(/N=C/c2ccc(-c3ccc([N+](=O)[O-])cc3)o2)C([O-])=N1.[Na+] [Dantrolene, sodium salt]",83.6,95.2,114,107
NC(=O)OCC(COC(N)=O)c1ccccc1 [Felbamate],79.5,98.8,96.2,108
CC(=O)OCC[N+](C)(C)C.[Cl-] [Acetylcholine Chloride],73.8,88.1,86.3,93.8
OCCN(CCO)c1nc(N2CCCCC2)c2nc(N(CCO)CCO)nc(N3CCCCC3)c2n1 [Dipyridamole],89.4,83.2,115,124
Cc1ccc(=O)n(-c2ccccc2)c1 [Pirfenidone],67.8,90.1,112,102
c1coc(CNc2ncnc3nc[nH]c23)c1 [Kinetin],112,124,90.2,149
CCCCN1CCCCC1C(=O)Nc1c(C)cccc1C.Cl (stereo unspecified) [Bupivacaine HCl],117,113,117,121
COc1nc(C)nc(Cl)c1NC1=NCCN1 [Moxonidine],88.2,88.4,98.9,94.7
CN(C)c1cc(NC(=O)CNC(C)(C)C)c(O)c2c1CC1CC3C(N(C)C)C(=O)C(C(N)=O)=C(O)C3(O)C(=O)C1=C2O (stereo unspecified) [Tigecycline],77,112,82.6,115
